Measurements as given in the supplement of paper PMC8285479.
“And” between values parts separate entries of the source, which are not always exact repeats. Identical values can stand only once. Counter-ions that a name gives are not always drawn. ± gives the standard deviation of the averaged measurements. Whole data set: some 1,900 compounds, median “normalised cell viability (NPI; 0 = phenylarsine oxide control, 1 = DMSO control)” near 1, cut for the lowest 2% near 0.039. The list shows a part of the results.

System: NCI-H1944
Assay: normalised cell viability (NPI; 0 = phenylarsine oxide control, 1 = DMSO control) (fraction of DMSO control); NCI-H1944 is a non-small cell lung cancer line; higher = more viable cells (less compound toxicity)
Conditions: 6 days
[1] = glucocorticoid arm: hydrocortisone 2.75 uM co-treatment, compound 1 µM
[2] = glucocorticoid arm: hydrocortisone 2.75 uM co-treatment, compound 5 µM
[3] = glucocorticoid arm: hydrocortisone 2.75 uM pre-treated 2 days and continued, compound 1 µM
[4] = glucocorticoid arm: hydrocortisone 2.75 uM pre-treated 2 days and continued, compound 5 µM
[5] = glucocorticoid arm: vehicle, compound 1 µM
[6] = glucocorticoid arm: vehicle, compound 5 µM
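Note: CTB read-out in 384-well plates, mean of triplicate wells, normalised per plate against 1 µM phenylarsine oxide and 0.1% DMSO, compounds added 24 h after seeding.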

CC(/C=C/C(=O)NO)=C\[C@@H](C)C(=O)c1ccc(N(C)C)cc1 [Trichostatin A]
normalised cell viability [1]: 2.17e-05 ± 0.00056 | normalised cell viability [2]: 0.000584 ± 0.0001 | normalised cell viability [3]: 0.00474 ± 0.0016 | normalised cell viability [4]: 0.00101 ± 0.0013 | normalised cell viability [5]: -0.000312 ± 0.00084 | normalised cell viability [6]: 0.000187 ± 0.00072

Cc1nc(Nc2ncc(C(=O)Nc3c(C)cccc3Cl)s2)cc(N2CCN(CCO)CC2)n1 [Dasatinib]
normalised cell viability [1]: 0.339 ± 0.025 | normalised cell viability [2]: 0.281 ± 0.022 | normalised cell viability [3]: 0.427 ± 0.043 | normalised cell viability [4]: 0.376 ± 0.015 | normalised cell viability [5]: 0.51 ± 0.045 | normalised cell viability [6]: 0.436 ± 0.061

Cc1nc(Nc2ncc(C(=O)Nc3c(C)cccc3Cl)s2)cc(N2CCN(CCO)CC2)n1
normalised cell viability [1]: 0.967 ± 0.016 | normalised cell viability [2]: 0.957 ± 0.037 | normalised cell viability [3]: 0.989 ± 0.024 | normalised cell viability [4]: 0.997 ± 0.022 | normalised cell viability [5]: 0.957 ± 0.013 | normalised cell viability [6]: 0.966 ± 0.0092

CCN1CCN(Cc2ccc(-c3cc4c(N[C@H](C)c5ccccc5)ncnc4[nH]3)cc2)CC1
normalised cell viability [1]: 0.812 ± 0.041 | normalised cell viability [2]: 0.693 ± 0.043 | normalised cell viability [3]: 0.885 ± 0.014 | normalised cell viability [4]: 0.752 ± 0.047 | normalised cell viability [5]: 0.8103 ± 0.0047 | normalised cell viability [6]: 0.6 ± 0.016

CC(=O)[C@H]1CC[C@H]2[C@@H]3CC=C4C[C@@H](O)CC[C@]4(C)[C@H]3CC[C@]12C [Pregnenolone]
normalised cell viability [1]: 1.04 ± 0.01 | normalised cell viability [2]: 1.07 ± 0.026 | normalised cell viability [3]: 1.03 ± 0.011 | normalised cell viability [4]: 1.02 ± 0.015 | normalised cell viability [5]: 1.01 | normalised cell viability [6]: 1.007 ± 0.0058

CC(C)(C)c1ccc(C(O)CCCN2CCC(C(O)(c3ccccc3)c3ccccc3)CC2)cc1 (configuration not stated) [Terfenadine]
normalised cell viability [1]: 0.997 ± 0.0027 | normalised cell viability [2]: 0.9833 ± 0.0051 | normalised cell viability [3]: 1.03 ± 0.017 | normalised cell viability [4]: 1.03 ± 0.017 | normalised cell viability [5]: 0.9927 ± 0.006 | normalised cell viability [6]: 0.0387 ± 0.043

C=C1C(=O)O[C@@H](CCC)[C@@H]1C(=O)O [Butyrolactone 3]
normalised cell viability [1]: 1 ± 0.013 | normalised cell viability [2]: 1.02 ± 0.015 | normalised cell viability [3]: 0.998 ± 0.013 | normalised cell viability [4]: 1.017 ± 0.0082 | normalised cell viability [5]: 0.996 ± 0.0046 | normalised cell viability [6]: 1.001 ± 0.0075

CCCCN1CCCCC1C(=O)Nc1c(C)cccc1C (configuration not stated) [Bupivacaine HCl]
normalised cell viability [1]: 1.02 ± 0.011 | normalised cell viability [2]: 0.995 ± 0.016 | normalised cell viability [3]: 1.023 ± 0.0058 | normalised cell viability [4]: 1.02 ± 0.016 | normalised cell viability [5]: 0.999 ± 0.0017 | normalised cell viability [6]: 0.9923 ± 0.005

C[N+](C)(C)CCCCCNCC12CC3CC(CC(C3)C1)C2
normalised cell viability [1]: 1 ± 0.0092 | normalised cell viability [2]: 0.973 ± 0.033 | normalised cell viability [3]: 1.01 ± 0.013 | normalised cell viability [4]: 0.985 ± 0.016 | normalised cell viability [5]: 0.9897 ± 0.0035 | normalised cell viability [6]: 0.9947 ± 0.0031

N[C@H](CO)C(=O)O [D-Serine]
normalised cell viability [1]: 1.013 ± 0.0058 | normalised cell viability [2]: 1.04 ± 0.06 | normalised cell viability [3]: 0.896 ± 0.27 | normalised cell viability [4]: 1.02 ± 0.01 | normalised cell viability [5]: 1.02 | normalised cell viability [6]: 1.017 ± 0.0058

NC(Cc1cccc(-c2ccccc2CP(=O)(O)O)c1)C(=O)O (stereo not drawn) [Phenylbenzene-omega-phosphono-alpha-amino acid]
normalised cell viability [1]: 0.9963 ± 0.0055 | normalised cell viability [2]: 1.1 ± 0.021 | normalised cell viability [3]: 1.06 ± 0.087 | normalised cell viability [4]: 1.04 ± 0.021 | normalised cell viability [5]: 1.017 ± 0.0058 | normalised cell viability [6]: 1.03 ± 0.01

O=S(=O)(c1cccc2cnccc12)N1CCNCC1
normalised cell viability [1]: 1.01 ± 0.011 | normalised cell viability [2]: 1.02 ± 0.017 | normalised cell viability [3]: 1.002 ± 0.0076 | normalised cell viability [4]: 1.01 ± 0.021 | normalised cell viability [5]: 0.9987 ± 0.0023 | normalised cell viability [6]: 1.003 ± 0.0058

COC(=O)Nc1ccc(-c2nc(N3CCOCC3)c3cnn(C4CCN(Cc5cccnc5)CC4)c3n2)cc1
normalised cell viability [1]: 0.606 ± 0.025 | normalised cell viability [2]: 0.78 ± 0.031 | normalised cell viability [3]: 0.692 ± 0.015 | normalised cell viability [4]: 0.804 ± 0.046 | normalised cell viability [5]: 0.651 ± 0.039 | normalised cell viability [6]: 0.934 ± 0.02

Nc1ncn([C@H]2C[C@H](O)[C@@H](CO)O2)c(=O)n1 [5-Aza-2'-deoxycytidine]
normalised cell viability [1]: 1.087 ± 0.0058 | normalised cell viability [2]: 1.12 ± 0.05 | normalised cell viability [3]: 1.07 ± 0.01 | normalised cell viability [4]: 1.09 ± 0.015 | normalised cell viability [5]: 0.581 ± 0.051 | normalised cell viability [6]: 0.296 ± 0.027

Nc1ncn([C@H]2C[C@H](O)[C@@H](CO)O2)c(=O)n1 [5-Aza-2'-deoxycytidine; Decitabine]
normalised cell viability [1]: 1.073 ± 0.0058 | normalised cell viability [2]: 1.15 ± 0.026 | normalised cell viability [3]: 1.07 ± 0.01 | normalised cell viability [4]: 1.1 ± 0.02 | normalised cell viability [5]: 0.204 ± 0.009 | normalised cell viability [6]: 0.22 ± 0.021

Nc1ncn([C@H]2C[C@H](O)[C@@H](CO)O2)c(=O)n1 [Decitabine]
normalised cell viability [1]: 1.1 and 1.06 | normalised cell viability [3]: 1.08 and 1.05

NCCCCNCCCN [Spermidine trihydrochloride]
normalised cell viability [1]: 0.993 ± 0.015 | normalised cell viability [2]: 0.991 ± 0.016 | normalised cell viability [3]: 1.01 ± 0.021 | normalised cell viability [4]: 0.9607 ± 0.0025 | normalised cell viability [5]: 0.9847 ± 0.0095 | normalised cell viability [6]: 0.997 ± 0.011

O=C(Cc1ccc(-c2ccc(OCCN3CCOCC3)cc2)cn1)NCc1ccccc1
normalised cell viability [1]: 0.235 ± 0.021 | normalised cell viability [2]: 0.258 ± 0.015 | normalised cell viability [3]: 0.464 ± 0.041 | normalised cell viability [4]: 0.518 ± 0.077 | normalised cell viability [5]: 0.0379 ± 0.0028 | normalised cell viability [6]: 0.0359 ± 0.0039

CCOC(=O)[C@]12CC1/C(=N\O)c1ccccc1O2 (some centres not stated)
normalised cell viability [1]: 1.017 ± 0.0058 | normalised cell viability [2]: 1.01 ± 0.024 | normalised cell viability [3]: 1.007 ± 0.0058 | normalised cell viability [4]: 1.02 | normalised cell viability [5]: 0.997 ± 0.013 | normalised cell viability [6]: 1.002 ± 0.0068

CC(C)N(CCCNC(=O)Nc1ccc(C(C)(C)C)cc1)C[C@H]1O[C@@H](n2ccc3c(N)ncnc32)[C@H](O)[C@@H]1O
normalised cell viability [1]: 1.003 ± 0.0058 | normalised cell viability [2]: 1.07 ± 0.025 | normalised cell viability [3]: 0.984 ± 0.0053 | normalised cell viability [4]: 1.04 ± 0.01 | normalised cell viability [5]: 1.002 ± 0.0068 | normalised cell viability [6]: 1.002 ± 0.0076

CCS(=O)(=O)Nc1ccc2[nH]c(O)c(C(=Nc3ccc(CN4CCCCC4)cc3)c3ccccc3)c2c1 [Hesperadin]
normalised cell viability [1]: 0.435 ± 0.035 | normalised cell viability [2]: 0.396 ± 0.068 | normalised cell viability [3]: 0.419 ± 0.087 | normalised cell viability [4]: 0.51 ± 0.08 | normalised cell viability [5]: 0.371 ± 0.08 | normalised cell viability [6]: 0.218 ± 0.035

Cc1cc(Nc2ccc(NC(=O)c3ccc(Nc4ccnc5ccccc45)cc3)cc2)nc(N)n1
normalised cell viability [1]: 0.99 ± 0.017 | normalised cell viability [2]: -0.000696 ± 0.0048 | normalised cell viability [3]: 0.9783 ± 0.0035 | normalised cell viability [4]: 0.492 ± 0.5 | normalised cell viability [5]: 1.006 ± 0.0075 | normalised cell viability [6]: 0.000819 ± 0.0006

CCC(NC(C)C)C(O)c1ccc(O)c(O)c1 (configuration not stated) [Isoetharine mesylate]
normalised cell viability [1]: 0.9837 ± 0.0045 | normalised cell viability [2]: 0.997 ± 0.014 | normalised cell viability [3]: 0.9953 ± 0.0042 | normalised cell viability [4]: 1.01 ± 0.088 | normalised cell viability [5]: 0.993 ± 0.0027 | normalised cell viability [6]: 0.999 ± 0.011

CNC(CC(=O)O)C(=O)O [NMDA (N-Methyl-D-aspartic acid)]
normalised cell viability [1]: 1.006 ± 0.0069 | normalised cell viability [2]: 1.03 ± 0.037 | normalised cell viability [3]: 1.01 ± 0.032 | normalised cell viability [4]: 1.01 ± 0.013 | normalised cell viability [5]: 1.003 ± 0.0058 | normalised cell viability [6]: 0.9973 ± 0.0025

CCOC(=O)C(C)(C)Oc1ccc(Cl)cc1 [Clofibrate]
normalised cell viability [1]: 1.02 ± 0.011 | normalised cell viability [2]: 0.9977 ± 0.004 | normalised cell viability [3]: 1.02 ± 0.015 | normalised cell viability [4]: 0.999 ± 0.016 | normalised cell viability [5]: 0.998 ± 0.014 | normalised cell viability [6]: 1.01

c1cnc2c(c1)ccc1cccnc12 [1,10-Phenanthroline monohydrate]
normalised cell viability [1]: 0.9727 ± 0.0075 | normalised cell viability [2]: 0.239 ± 0.034 | normalised cell viability [3]: 1.01 ± 0.03 | normalised cell viability [4]: 0.848 ± 0.024 | normalised cell viability [5]: 0.9677 ± 0.0031 | normalised cell viability [6]: 0.082 ± 0.0079
